# Test results taken from PubChem BioAssay AID686978 (National Center for Advancing Translational Sciences (NCATS), 2013).
# Values joined by “and” are separate entries in the source; they are usually repeats but may differ in a detail not shown here. Identical values can stand only once. In all, about 420,000 compounds went through this assay and about 64,000 (15%) were called active. The inconclusive results got no clear call from the source; some entries with a clear call stand among them for comparison. Calls come from the whole dose curve; as a rule, active = well fitted inhibition curve with a large enough effect; inconclusive = small, poorly fitted or top-dose-only effect; inactive = flat fitted curve, though single readings scatter. A potency beside an inconclusive call is a rough fit, not a confirmed value.
# Test: qHTS for Inhibitors of human tyrosyl-DNA phosphodiesterase 1 (TDP1): qHTS in cells in absence of CPT; note: nearly all actives have a fitted effect of over 55% in size
# Conditions: DT40 Tdp1-/- hTDP1 cells, no CPT, ATP luminescence, 48 h; activity change, negative = growth inhibition: at 46.2 µM (top of the series) unless noted
# Method in brief: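 DT40 Tdp1-/-;hTDP1 cells, no CPT (DMSO vehicle only), 400 cells/well; compounds pin-transferred; ≥48 hr, 37 °C; CellTiter-Glo 30 min RT dark, luminescence read.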
# % is set by controls: 0 for no effect and ±100 for the full control effect; potency is the fitted concentration of half-maximal effect; tags give direction and shape of the fitted curve.
SMILES,Potency,"activity change, negative = growth inhibition"
COc1cc(/C=C/C(=O)c2ccc([N+](=O)[O-])o2)ccc1O,active: 0.517 µM,–
Cc1ccc(C(=O)N(CC(=O)NC2CCCC2)c2ccccc2C)s1,"inconclusive: 29.1 µM [inhibitor, single point]",–
CCOc1ccc(NC(=O)CSc2nnc(-c3ccccc3Cl)n2Cc2ccco2)cc1,active: 18.4 µM,–
CCC(OC(=O)CCc1nc2ccccc2[nH]c1=O)C(=O)c1ccccc1 (configuration not stated),"inconclusive: 10.3 µM [inhibitor, partial curve, poor fit]",–
Cc1ccc(CSc2nc(-c3cccs3)ccc2C#N)cc1,–,inactive: -22%
COc1ccc(S(=O)(=O)N(C)C)cc1NC(=O)COC(=O)c1n[nH]c2ccccc12,"inconclusive: 29.1 µM [inhibitor, single point]",–
COC(=O)N/N=C/c1ccc(-c2ccccc2Cl)o1,"inconclusive: 23.1 µM [inhibitor, single point]",–
O=c1c2ccccc2c(C=Nc2ccc(Cl)cn2)c(O)n1-c1cc(Cl)ccc1N1CCOCC1,active: 1.46 µM,–
CCCCC(=O)Nc1cc([N+](=O)[O-])ccc1Cl,–,inconclusive: -34.7% [inhibitor]
O=C1C(Nc2ccc(O)cc2)=C/C(=N/S(=O)(=O)c2cccs2)c2ccccc21,active: 1.46 µM,–
CCn1nc(C)c(/C=N/NC(=O)c2ccoc2C)c1C,–,inactive: -15.7%
Cc1ccc2[nH]c3c(=O)n(CCN4CCOCC4)cnc3c2c1,–,inactive: -1.5%
Cc1nnc(SCc2ccc(Cl)cc2)c2cc3occc3n12,"inconclusive: 20.6 µM [inhibitor, single point]",–
CCCNC(=O)C1(C)CCCN(Cc2ccc(-c3ccccc3)o2)C1 (configuration not stated),active: 20.6 µM,–
CC1C(=O)N2CCCc3cc(NC(=O)C(=O)NCCc4ccc(F)cc4)cc1c32 (configuration not stated),"inconclusive: 29.1 µM [inhibitor, single point]",–
Cc1ccc(O)c(Cc2cc(C)cc(Cc3cc(C)ccc3O)c2O)c1,"inconclusive: 16.4 µM [inhibitor, single point]",–
O=C(CC1Nc2ccccc2NC1=O)NCc1cccnc1 (configuration not stated),"inconclusive: 16.4 µM [inhibitor, single point]",–
CCOC(=O)C/C(=N\Nc1ncnc2ccccc12)c1ccccc1,"inconclusive: 20.6 µM [inhibitor, single point]",–
Cc1ccc2c(CN3CCCCC3)cc(=O)oc2c1,–,inactive: -2.36%
CCOC(=O)CNC(=O)Cn1cnc2c(nnn2-c2ccccc2)c1=O,–,inactive: -0.823%
COc1ccc(CCn2c(=O)[nH]c3cc(C(=O)NCCCN4CCOCC4)ccc3c2=O)cc1OC,–,inactive: -24.9%
O=C(Nc1cccc(Cl)c1)c1cncn1-c1ccc(F)cc1,–,inactive: -3.19%
COc1ccc(/C=C2\SC(=O)N(CC(=O)Nc3ccc(F)cc3)C2=O)cc1O,active: 14.6 µM,–
CCOC(=O)C(c1ccccc1)C(Nc1ccc(Cl)c(Cl)c1)c1ccccn1 (configuration not stated),active: 9.2 µM,–

SMILES,Potency,"activity change, negative = growth inhibition"
COc1ccc(NC(=O)C[C@H]2C(=O)N(CCc3ccccc3)C[C@@H]2Cc2ccccc2)cc1,"inconclusive: 20.6 µM [inhibitor, single point]",–
Cc1ccc(C)c(OCCC(=O)NCCc2ccc(Cl)cc2)c1,"inconclusive: 32.6 µM [inhibitor, single point]",–
CNc1cc([N+](=O)[O-])ccc1N/C=C/C(=O)c1ccc2c(c1)OCO2,"inconclusive: 29.1 µM [inhibitor, single point]",–
CCOC(=O)C1(C)Oc2ccccc2C(c2ccc(OC)cc2)=C1C(=O)OC (configuration not stated),"inconclusive: 29.1 µM [inhibitor, single point]",–
CC(=O)N1CCc2c(sc3c2c(=O)n(-c2ccccc2)c(=O)n3CC(=O)Nc2ccccc2C)C1,–,inactive: -0.0908%
Cc1cccc(C)c1NC(=S)N/N=C1\CC2CC=CC12 (configuration not stated),"inconclusive: 23.1 µM [inhibitor, single point]",–
CC(C)(C)NC(=O)CSC(=Nc1ccc(F)cc1)NC#N,"inconclusive: 18.4 µM [inhibitor, partial curve]",–
O=C(Nc1ccc(Cn2nnc3ccccc32)cc1)c1ccco1,"inconclusive: 18.4 µM [inhibitor, single point]",–
CCOC(=O)N1CCN(C(=O)CSc2ccc3nnc(-c4ccncc4)n3n2)CC1,"inconclusive: 10.3 µM [inhibitor, partial curve, poor fit]",–
CCn1c(=S)[nH]c2c(c1=O)C(C)(C)Cc1ccccc1-2,–,inactive: -24.3%
Cc1noc(/C=C/N(C)C)c1S(=O)(=O)N(C)CC(=O)N1CCc2ccccc21,"inconclusive: 11.6 µM [inhibitor, partial curve, poor fit]",–
OC(C#Cc1ccccn1)c1cccs1 (configuration not stated),active: 16.4 µM,–
O=C(Nc1ccccc1O)c1c(O)c2c([nH]c1=O)CCCC2,"inconclusive: 14.6 µM [inhibitor, partial curve, poor fit]",–
Cc1cc(S(=O)(=O)Nc2ccc3cn[nH]c3c2)c(C)cc1Cl,active: 4.61 µM,–
CN1CCN(c2nc(N3CCN(c4ccccc4)CC3)ncc2F)CC1,"inconclusive: 16.4 µM [inhibitor, single point]",–
O=C(NC(=S)NNC(=O)c1cccs1)c1ccc(Br)o1,"inconclusive: 23.1 µM [inhibitor, single point]",–
COc1ccc(NC(=O)c2oc3ccccc3c2NC(=O)c2cc3ccccc3o2)cc1,active: 4.11 µM,–
CCOC(=O)c1sc(=S)n(C)c1N,–,inactive: -23.9%
CCc1ccc(NS(=O)(=O)c2ccc3[nH]cc(C(=O)NCC4CCCO4)c(=O)c3c2)cc1 (configuration not stated),–,inactive: -7.71%
O=C(NCc1ccccn1)c1cccc(NS(=O)(=O)c2cccc(F)c2)c1,active: 1.46 µM,–
OC[C@@H]1CN(Cc2ccc(F)cc2)C[C@H](n2cnc3c(N4CCCC4)ncnc32)O1,"inconclusive: 20.6 µM [inhibitor, single point]",–
COC(=O)C1=C(N)N(c2ccccc2F)C2=C(C(=O)CC(C)(C)C2)C1c1ccc(OC)c(OC)c1 (configuration not stated),"inconclusive: 23.1 µM [inhibitor, partial curve, poor fit]",–
CCOc1ccc(OCC)c(S(=O)(=O)N2CCCCC2C)c1 (configuration not stated),"inconclusive: 18.4 µM [inhibitor, single point]",–
Cc1ccc(SCc2nc(-c3ccccc3)no2)cc1,–,inactive: -13.7%

SMILES,Potency,"activity change, negative = growth inhibition"
Cc1ccccc1S(=O)(=O)Cc1ccc(C(=O)NC2CCCCC2)o1,"inconclusive: 29.1 µM [inhibitor, single point] and inconclusive: 16.4 µM [inhibitor, single point]",–
CC1=CC(C)(C)N(C(=O)CCl)c2ccccc21,–,inactive: -56.1%
CC1CCCC(NC(=O)CCCCCn2c(=S)[nH]c3ccsc3c2=O)C1C (configuration not stated),"inconclusive: 20.6 µM [inhibitor, single point]",–
CCOc1ccc(NC(=O)CSc2nnc3scc(-c4ccc(Cl)cc4)n23)cc1,"inconclusive: 25.9 µM [inhibitor, single point]",–
Cc1cc(C(=O)N/N=C/c2ccco2)c2ccccc2n1,"inconclusive: 23.1 µM [inhibitor, partial curve, poor fit]",–
NS(=O)(=O)c1ccc(NC(=O)c2cccc(Cl)c2)cc1,–,inactive: -15.6%
CN(c1ccc(F)cc1)S(=O)(=O)c1ccc(Cl)c(C(=O)NCC2CCCO2)c1 (configuration not stated),"inconclusive: 23.1 µM [inhibitor, single point]",–
COc1ccc(OC)c2c(=S)c3ccccc3[nH]c12,"inconclusive: 18.8 µM [inhibitor, partial curve, poor fit]",–
S=C(c1ccc2c(c1)OCO2)N1CCN(c2cccc(Cl)c2)CC1,active: 4.11 µM,–
CC(=O)c1sc(-c2ccccc2)cc1NS(=O)(=O)c1ccccc1,"inconclusive: 5.8 µM [inhibitor, full curve, poor fit]",–
O=S(=O)(NC1CCCCC1Nc1ccc(Cl)cc1)c1ccccc1 (configuration not stated),"inconclusive: 20.6 µM [inhibitor, single point]",–
COc1ccc(-c2cc(C(=O)Nc3cccnc3)c3ccccc3n2)cc1OC,active: 23.1 µM,–
CCCC1CCC(=NNC(=O)OC(C)(C)C)CC1 (configuration not stated),–,inactive: 19%
CCOC(=O)CCCCCC(=O)Nc1ccc2c(c1)C(=O)N([C@@H](C)CO)C[C@H](C)[C@H](CN(C)C(=O)Nc1ccc(F)cc1)OCCCC[C@H](C)O2,"inconclusive: 6.51 µM [inhibitor, partial curve, poor fit]",–
CC(=O)c1ccc(-c2ccc(C(=O)NCC(c3ccco3)N(C)C)o2)cc1 (configuration not stated),"inconclusive: 16.4 µM [inhibitor, partial curve]",–
COc1ccc(CCN(C(=O)C(F)(F)F)C(C(=O)NC2CCCCC2)c2ccc(C)s2)cc1 (configuration not stated),active: 2.82 µM,–
CCC1OC(C2CC2)CC2=C1C(=O)OC(C)(C)O2 (configuration not stated),–,inactive: -5.73%
Cc1c(O)ccc2c3c(c(=O)oc12)CCC(C)C3 (configuration not stated),active: 11.6 µM,–
COc1ccc(C)cc1S(=O)(=O)N1CCN(c2cccc(Cl)c2)CC1,"inconclusive: 20.6 µM [inhibitor, single point]",–
CC(=O)c1ccc(S(=O)(=O)Nc2cccc(-c3ccc4nncn4n3)c2)cc1,–,inactive: -29%
COc1ccc(NC(=O)C2Cc3cccc(OC)c3O/C2=N\O)cc1 (configuration not stated),"inconclusive: 29.1 µM [inhibitor, single point]",–
Cc1cccc(N(CC(=O)NC2CCCC2)C(=O)c2cc3cc4cccc(C)c4nc3s2)c1C,active: 16.4 µM,–
Cc1cccc(N2CCN(C3=NC(=O)C(=C4CCCCC4)S3)CC2)c1,"inconclusive: 18.4 µM [inhibitor, partial curve]",–
Cc1csc(C(C#N)C(=O)c2cc3ccccc3o2)n1 (configuration not stated),"inconclusive: 16.4 µM [inhibitor, partial curve]",–
